Results on 84 compounds are retold here after ChEMBL document CHEMBL4888484, “Replenishing the malaria drug discovery pipeline: Screening and hit evaluation of the MMV Hit Generation Library 1 (HGL1) against asexual blood stage Plasmodium falciparum ,using a nano luciferase reporter read-out” (2022).

The test system of this assay is Plasmodium falciparum. Put plainly: Primary screen in NF54 nanoGlo assay, in single point, at 2uM, 72h; a lower Z score goes with more inhibition. It is filed as functional, Erythrocyte. Conditions: timepoint 72 hour.

SMILES strings stand for the structures. Among all 150,000 compounds or so, about 540 (0.36%) showed an effect of 50% or more. This is one part of the list.

For orientation: % Inhibition means the change of the read-out against control, counted positive when it falls. Regarding `CCOc1cc(NCc2[nH]nc(C)c2C)nc(C)n1`, the “% Inhibition” value came out at 2% and the Z score is -0.33.
The like results for `O=S(=O)(c1ccccc1)N(C[C@H](O)COCc1ccccc1)c1nc2ccccc2s1` were, in that order, -3% and 0.4.
For `Cn1cc(S(=O)(=O)N2CC[C@@H](O)[C@H]2c2ccc(Cl)cc2)cn1`, in that order: -6% and 0.98.
As to `COc1ccc(F)c(F)c1C(=O)NCC1(CN2CCOCC2)CC1`, the “% Inhibition” value is -3% and the Z score is reported as 0.67.
For `O=C(O)CC[C@@H]1N[C@]2(C(=O)Nc3ccccc32)[C@@H]2C(=O)N(c3ccc(Cl)cc3)C(=O)[C@H]12`, in that order: -3% and 0.28.
The like results for `COCCn1ccnc1C1CCN(C(=O)c2cc(C(C)C)oc2C)CC1` were, in that order, 6% and -1.22.
For `CCC(=O)NCc1ccccc1-c1ccc(=O)[nH]c1`, in that order: -8% and 1.15.
Consider `Cn1nccc1CNS(=O)(=O)C1(COCc2ccccc2)CC1`, for which the “% Inhibition” value worked out at 16% and the Z score was -1.88.
The like results for `Cc1c(NC(=O)N2CCCCCCC2)cc2[nH]cnc2c1C` were, in that order, -9% and 1.16.
For `CC(C)(O)C1CN(C(=O)NCCc2cc(F)c(F)c(F)c2)C1`, in that order: -6% and 0.84.
The like results for `O=C(CC[C@H]1CCCN(C(=O)c2onc3c2CCCC3)C1)N1CCN(c2ccccn2)CC1` were, in that order, -7% and 1.35.
Consider `Cc1sc(-c2noc(C3CCC3)n2)cc1NC(=O)C1CCCCC1`, for which the “% Inhibition” value is reported as 6% and the Z score is -0.6.
For `Cc1n[nH]c([C@@H]2CN(c3ccnc(C(F)(F)F)c3)CCO2)n1`, in that order: 4% and -0.84.
For `CCCC(=O)NCC(=O)NC[C@H](O)c1c(Cl)cccc1Cl`, in that order: -6% and 1.2.
As to `CCN1C(=O)C[C@H](C(=O)NC2CCOCC2)[C@H]1c1nccn1CC`, the “% Inhibition” value amounted to 3% and the Z score was -0.53.
The like results for `Cc1ccc(NC(=O)N[C@H]2CCO[C@@H]2c2ccncc2)cc1S(C)(=O)=O` were, in that order, -8% and 1.26.
For `Cc1cccc(C(=O)N2CCC3(CCC(=O)N(CCc4cccnc4)C3)CC2)n1`, in that order: 6% and -1.07.
The like results for `CCO[C@H]1COC[C@@H]1NC(=O)Nc1ccc(C)c(C)c1` were, in that order, -15% and 1.41.
On to `CN1C(=O)CCC12CCN(S(=O)(=O)Cc1ccc(Cl)cc1F)CC2`, for which the “% Inhibition” value is -3% and the Z score is reported as 0.59.
For `Cc1nn(C)cc1CN1CCCN(c2nc3ccccc3s2)CC1`, in that order: -13% and 1.68.
The like results for `CN(Cc1cccc2nonc12)[C@H]1COC[C@@H]1O` were, in that order, -5% and 1.15.
With `COc1cn(CC(=O)Nc2nc(Cc3cc(F)cc(F)c3)n[nH]2)c(C)cc1=O`, the “% Inhibition” value was 0% and the Z score was found to be 0.03.
For `CCN1CCN(C(=O)CCC2CCN(C/C=C/c3ccccc3OC)CC2)CC1`, in that order: -2% and 0.4.
For `CN(C)C(=O)COc1ccc(NCc2noc3c2CCCC3)c(F)c1`, in that order: -6% and 0.58.
For `COCCN(CC(=O)Nc1cc(OC)cc(OC)c1)C1CCCC1`, in that order: -11% and 1.08.
With `O=S(=O)(c1ccc2c(c1)CCCC2)N1CCC2(CC1)OCCCO2`, the “% Inhibition” value is reported as -19% and the Z score was 2.17.
The like results for `O=C1N[C@@](Cc2ccc(F)cc2)(C2CCNCC2)C(=O)N1CCc1cccs1` were, in that order, -14% and 2.62.
With `COC(=O)Cn1c(=O)c2c(nc(-n3nc(C)cc3C)n2Cc2ccc(F)cc2)n(C)c1=O`, the “% Inhibition” value amounted to 3% and the Z score was -0.46.
For `CC[C@H](NC(=O)Cc1cncnc1)C1CCCCC1`, in that order: -11% and 1.75.
The like results for `Cc1nnc(-c2cccc(NCc3ccccc3C3CC3)c2)n1C` were, in that order, -14% and 2.46.
Consider `CC(C)(C)OC(=O)NC1CCCCCCC1C(=O)NCCCNc1ncccn1` (stereo not drawn), for which the “% Inhibition” value is 3% and the Z score was -0.68.
For `O=C(c1ccccc1)N1CC[C@H](CN(CC2CC2)C2CCC2)C1`, in that order: -1% and 0.18.
The like results for `Cc1cccc(N(C)C(=O)CCc2ccsc2)n1` were, in that order, 2% and -0.25.
For the compound `CC(C)[C@@H](c1ccccn1)n1cc(C2CCN(C(C)C)CC2)nn1`, the “% Inhibition” value is on record as -12% and the Z score came out at 1.11.
The like results for `Cc1ccc(C2=C[C@@H](c3ccc(C)cc3)n3nc(NC(=O)c4cccc(Cl)c4)nc3N2)cc1` were, in that order, 16% and -2.03.
The like results for `O=C(c1ccc(C2CC2)nc1O)N1CC(c2cccc(Cl)c2)C1` were, in that order, -4% and 0.83.
Turning to `COc1cccc([C@H]2CC(=O)Nc3nc(N4CCCCC4)sc32)c1`, where the note is “2 µM”, the “% Inhibition” value was -15% and the Z score was -1.57.
For `NC(=O)C1CCN(C(=O)CS(=O)(=O)c2ccc(F)c(F)c2)CC1`, the “% Inhibition” value is reported as 2% and the Z score was -0.41.
For `CN1CCC(NC(=O)CC2CC3CCC2C3)CC1` (stereo not drawn), in that order: 33% and -3.73.
For `CCc1cnc(N)nc1N1CC(OCc2ccccc2F)C1`, in that order: -13% and 1.21.
Consider `CCOCC(=O)NCc1cc(Br)ccc1C`, for which the “% Inhibition” value is reported as -6% and the Z score is recorded as 0.73.
For `COC(=O)CCN1CCN(C(=O)c2cc[nH]c2C2CC2)C[C@@H]1C`, in that order: -10% and 1.71.
For `Cc1ccc(C(=O)N2CCN(c3nc(-c4ccccc4)nc4cc(Cl)ccc34)CC2)cc1`, in that order: -1% and 0.08.
For `CCN1CC[C@H](Nc2nc3ccccc3s2)C1=O`, in that order: -10% and 1.14.
As for `O=C(O)C1CC(c2ccccc2)CN(C(=O)c2cccs2)C1` (stereo not drawn), the “% Inhibition” value was -18% and the Z score worked out at 1.68.
The like results for `Cc1cc(C(=O)N2CC[C@H](OCc3ccccc3)C2)n(C)n1` were, in that order, -8% and 0.92.
On to `CC(C)(c1ccc(Oc2ccc3c(c2)C(=O)N(c2nccs2)C3=O)cc1)c1ccc(Oc2ccc3c(c2)C(=O)N(c2nccs2)C3=O)cc1`, for which the “% Inhibition” value is given as -4% and the Z score was found to be 0.81.
For `FC(F)(F)c1ccc(NCc2ccco2)nn1`, in that order: -15% and 2.39.
For `Cc1cc(NC(=O)c2cc3c(s2)CCCCCC3)no1`, in that order: 2% and -0.23.
For `O=C1C(=O)N(CC(=O)N2CCc3ccccc3C2)c2ccccc21`, in that order: 4% and -0.54.
`O=C(Cc1ccccc1Cl)N[C@H]1CC[C@H](Oc2cnccn2)CC1`: the “% Inhibition” value is reported as -14% and the Z score worked out at 1.61.
The like results for `Cc1nn(C)c(C)c1C(=O)N1CC(n2nccn2)C1` were, in that order, -6% and 0.64.
For `CC(C)c1cncc(NC(=O)c2ccc(C(F)F)nc2)c1`, in that order: -15% and 2.75.
`CC(CN1CC(O)CC1c1ccccc1C(F)(F)F)CS(C)(=O)=O` (stereo not drawn): the “% Inhibition” value was -6% and the Z score is given as 0.9.
For `Cc1cc2ncc(C(C)N[C@@H](C)C(=O)N3CCCCC3)c(C)n2n1` (stereo partly drawn), in that order: -16% and 1.58.
For `CCOCC1CCN(C(=O)C2C3CCCC32)C1` (stereo not drawn), in that order: -11% and 1.38.
On to `O=S(=O)(c1ccccc1Cl)N1CCN(c2nc3nccc(-c4cccc(C(F)(F)F)c4)n3n2)CC1`, for which the “% Inhibition” value is given as -2% and the Z score is 0.29.
For `CN(C(=O)C1CC1c1ccccc1C(F)(F)F)c1ccc(C(N)=O)cc1` (stereo not drawn), in that order: -2% and 0.19.
Turning to `COCc1ncc(-c2noc(C(=O)Nc3ccccc3)n2)c(N)n1`, the “% Inhibition” value is given as -18% and the Z score is 2.97.
For `CN(Cc1nccs1)C(=O)N[C@H](c1ccccc1F)C1CCCC1`, in that order: -9% and 1.03.
As for `COCC1(C2CCC2)CN(C(=O)NCCC2CCS(=O)(=O)CC2)C1`, the “% Inhibition” value is on record as -11% and the Z score is recorded as 2.09.
The like results for `Cn1cc(C(=O)N2CCc3ccccc3C2)c2ccccc21` were, in that order, 7% and -0.83.
The like results for `C[C@H](OC(=O)c1cc(Cl)c[nH]1)C(=O)Nc1ccc(S(=O)(=O)N2CCOCC2)cc1` were, in that order, -13% and 2.5.
For `O=C1CN(C(=O)NC2CCCCC2)CCN1`, in that order: -7% and 1.04.
In the case of `FC(F)(F)C1=Nc2ccccc2N(c2ccc(Cl)c(Cl)c2)C1`, the “% Inhibition” value was 4% and the Z score is given as -0.48.
For `Cc1nc([C@H](C)NCc2cc3c(cc2Cl)OCO3)n[nH]1`, in that order: -3% and 0.51.
For `COc1cc2nc(C(=O)NC3CCCCCC3)c(=O)n(C)c2cc1OC`, in that order: -16% and 1.98.
As to `O=C1NCCCc2[nH]c(-c3ccccc3-n3ccnc3)nc21`, the “% Inhibition” value is -8% and the Z score is 0.88.
On to `COc1cc(Cl)ccc1Oc1ncnc2oc(C)c(C)c12`, for which the “% Inhibition” value was -2% and the Z score stood at 0.26.
The like results for `Cc1cc(O)n2nc(CC(=O)N[C@H]3CCCN(Cc4ccccn4)C3)nc2n1` were, in that order, -11% and 1.67.
For `CN(C)C1CN(C(=O)c2ncsc2-c2ccccc2)C1`, in that order: -1% and 0.07.
For `COc1ccc(CN2C(=O)N[C@@H](CC(=O)NC3CCCCC3)C2=O)cc1`, in that order: -16% and 2.03.
In the case of `COc1cccc([C@H]2C[C@@H]2C(=O)N2CCC(O)C(C)(C)C2)c1` (stereo partly drawn), the “% Inhibition” value is on record as -4% and the Z score was found to be 0.63.
The like results for `O=C(N[C@H](c1ccccc1)C1CC1)C1CCCCC1` were, in that order, -8% and 0.91.
For `Cc1ccc([C@H]2CN(C(=O)c3ccccc3-c3nnn[nH]3)C[C@@H]2N(C)C)cc1`, in that order: 4% and -0.64.
For `CC[C@H](C)N(C)CCNc1ncc(C(=O)N2CCOCC2)cc1Cl`, in that order: 3% and -0.32.
For `COC1CCCC(CC(=O)N2CCCCC2c2nc3ccccc3o2)C1` (stereo not drawn), the “% Inhibition” value is recorded as -5% and the Z score stood at 0.67.
The like results for `O=C(Nc1cc(Cl)ccc1Cl)c1nn2c(c1Cl)N[C@@H](c1cccs1)C[C@H]2C(F)(F)F` were, in that order, 0% and 0.03.
With `O=S1(=O)C[C@@H]2[C@H](C1)N(Cc1ccccc1)CCN2Cc1cncs1`, the “% Inhibition” value turned out to be 8% and the Z score was -1.07.
For `CCC(O)(CC)CNC(=O)c1ccc(OC)c(OC(F)F)c1`, the “% Inhibition” value is -4% and the Z score is listed as 0.66.
For `CCc1ccc(CNC(=O)c2ccc3c(c2)nc2n3CC[C@H](C)C2)cc1`, in that order: -5% and 0.76.
For `Cc1nc(-c2ccccc2)c(C(=O)N2CCOC[C@@H]2CC(N)=O)s1`, in that order: -13% and 1.68.
For `CN(C)c1ccncc1NS(=O)(=O)c1ccccc1`, in that order: 4% and -0.76.
Consider `CCOc1ccc(-c2c[nH]c(-c3ccc(S(=O)(=O)NC)cc3)n2)cc1`, for which the “% Inhibition” value worked out at 3% and the Z score is listed as -0.56.
